Source: PubChem BioAssay AID624417 (National Center for Advancing Translational Sciences (NCATS), 2012)
Out of some 410,000 compounds screened, about 6,400 (1.6%) were called active. The shares of active, inactive and inconclusive entries below differ from those in the screen. Calls come from the whole dose curve; as a rule, active = well fitted inhibition curve with a large enough effect; inconclusive = small, poorly fitted or top-dose-only effect; inactive = no such curve, though single readings can be large or run the other way. Potencies of inconclusive entries are doubtful fits and often do not repeat. Numbered stars: 1 amine (or outer) side, 2 acyl side, 3 side chain; on linkers, the order of the positions; unused ones are H or OH. Square brackets hold non-standard residues; d marks the D form. Peptide text beside a SMILES is read from it. X3 = CC[C@H](C)[C@H](OC(=O)[C@@H](C)[C@@H](CC)N[*:1])C(=O)[*:2]; X1 = CC(N[*:1])C(=O)C(C)(C)C(=O)[*:2]; NMeF = CN[C@@H](Cc1ccccc1)C(=O)O; NMeL = CN[C@@H](CC(C)C)C(=O)O; NMeV = CN[C@H](C(=O)O)C(C)C; NMeA = CN[C@@H](C)C(=O)O

biological target: Glucagon-like peptide 1 receptor (Homo sapiens) (UniProt P43220); experiment: qHTS of GLP-1 Receptor Inverse Agonists (Inhibition Mode); details: HEK293 GLP-1R CRE-luciferase, luminescence, 24 h, GLP-1R form is constitutively active; activity change, negative = inhibition: at 38.3 µM (top of the series) unless noted; note: nearly all actives have a fitted effect of over 55% in size
How it was run: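 qHTS in 1536-well format: reporter HEK293 cells expressing constitutive GLP-1R activity in DMEM + 10% Nu serum, 24 hr with compounds at 37 deg C, luminescence read after 12 min with detection reagent.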
% is set by controls: 0 for no effect and ±100 for the full control effect; potency is the fitted concentration of half-maximal effect; tags give direction and shape of the fitted curve.

UniProt P43220, sequence (P43220 whole entry, looked up): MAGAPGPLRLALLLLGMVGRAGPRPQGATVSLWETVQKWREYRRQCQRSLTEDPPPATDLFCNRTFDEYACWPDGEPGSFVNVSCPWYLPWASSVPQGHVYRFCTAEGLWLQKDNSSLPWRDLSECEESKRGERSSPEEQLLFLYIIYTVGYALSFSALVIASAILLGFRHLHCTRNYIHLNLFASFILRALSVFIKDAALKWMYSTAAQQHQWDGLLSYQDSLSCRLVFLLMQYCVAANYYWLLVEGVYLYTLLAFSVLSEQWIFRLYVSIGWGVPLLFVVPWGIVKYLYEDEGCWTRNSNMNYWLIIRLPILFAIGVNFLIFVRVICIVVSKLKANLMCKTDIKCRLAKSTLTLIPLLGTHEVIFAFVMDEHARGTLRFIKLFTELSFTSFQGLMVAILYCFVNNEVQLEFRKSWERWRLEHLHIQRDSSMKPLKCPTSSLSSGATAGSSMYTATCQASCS

Potency, inconclusive:
Cn1ncc(C(=O)Nc2ccc(OC(F)(F)F)cc2)c1-n1cccc1 11.2 µM [inhibitor, single point]
CN1CCN(C(=O)/C=C/c2cn(-c3ccccc3)nc2-c2ccc3c(c2)OCCO3)CC1 31.6 µM [inhibitor, single point]
COC(=O)C1=C(C)N=C2SC(C)C(=O)N2C1c1cccs1 (configuration not stated) 28.2 µM [inhibitor, single point]
Cc1cccc(OCCSc2nnc(-c3cccs3)o2)c1 28.2 µM [inhibitor, single point]
Cc1cc2nc(SCC(=O)N(C)C)c3c(c2cc1C)CCCC3 10 µM [inhibitor, single point]
CC(C)Oc1ccc(S(=O)(=O)N2CCCCC2)cc1NC(=O)C1=COCCO1 10 µM [inhibitor, single point]
CC[C@H](C)[C@@H]1OC(=O)[C@@H](C)[C@@H](CC)NC(=O)[C@H](C)N(C)C(=O)C(C)(C)C(=O)C(C)NC(=O)[C@H](Cc2ccccc2)N(C)C(=O)[C@H](C(C)C)N(C)C(=O)CNC(=O)[C@H](CC(C)C)N(C)C(=O)CNC1=O (some centres not stated) (cyclo(G[NMeL]G[NMeV][NMeF][X1][NMeA][X3])) 0.562 µM [inhibitor, full curve, poor fit]
N#Cc1c(C(F)(F)F)cc(=O)n2c1[nH]c1ccccc12 7.94 µM [inhibitor, partial curve, poor fit]
COc1cccc(C(=O)N2C(C(C)C)COc3cc(Br)ccc3S2(=O)=O)c1 (configuration not stated) 31.6 µM [inhibitor, single point]
O=C(CSc1nc(=O)n(Cc2ccco2)c2c1CCC2)NCc1ccccc1 22.4 µM [inhibitor, partial curve, poor fit]
COc1ccc(-c2cc(=O)oc3cc(OC(=O)C4CCCCC4)ccc23)cc1 7.94 µM [inhibitor, partial curve, poor fit]
CCCNC(=S)N1CCCC(c2nc3ccccc3[nH]2)C1 (configuration not stated) 7.94 µM [inhibitor, partial curve]
CC(C)c1ccc(/C=N/NC(=O)CCNC(=O)c2ccccc2)cc1 12.6 µM [inhibitor, single point]
CCN(CCNC(=O)C1=C(C)C(=O)OC12CCC(C)CC2)c1ccccc1 (configuration not stated) 11.2 µM [inhibitor, single point]
C/C=C/c1ccc(OCCCCN(C)Cc2ccccc2)c(OC)c1 5.62 µM [inhibitor, full curve, poor fit]
CCc1ccc2oc(-c3ccc(C)c(NC(=O)/C=C/c4ccco4)c3)nc2c1 1.58 µM [inhibitor, partial curve, poor fit]
CCCCC(=O)N(C)c1c(CC)nc2c(OCc3cccc(Cl)c3)cccn12 28.2 µM [inhibitor, single point]
O=C(Nc1ccc(F)cc1)C(c1cccc(F)c1)N1CCN(c2cccc(C(F)(F)F)n2)CC1 (configuration not stated) 11.2 µM [inhibitor, partial curve, poor fit]
Cc1ccc(C)c(NC(=O)Cn2cc(C(=O)C3CC3)c3ccccc32)c1 28.2 µM [inhibitor, partial curve, poor fit]
N=c1n(CCCOc2ccc(Br)cc2)c2ccccc2n1CC(N)=O 10 µM [inhibitor, partial curve, poor fit]
COc1cccc(NC(=O)C2CCC(CNS(=O)(=O)c3ccc4c(c3)CCCC(=O)N4)CC2)c1 (configuration not stated) 7.08 µM [inhibitor, partial curve, poor fit]
COc1ccc(CCN(C)C(=O)c2cc(-c3ccc(C)cc3)nc3ccccc23)cc1OC 28.2 µM [inhibitor, single point]
CCOc1ccc(CCNC(=O)C2CCCN(S(=O)(=O)N(C)c3ccc(F)cc3)C2)cc1 (configuration not stated) 3.16 µM [inhibitor, single point]
CCCCOC(=O)c1ccc(NC(=O)C(=O)NCCN(CC)CC)cc1 3.16 µM [inhibitor, partial curve, poor fit]
O/N=C(\c1ccc(Cl)cc1Cl)c1ncc(C(F)(F)F)cc1Cl 28.2 µM [inhibitor, single point]
COc1cccc(-c2nc3ccccc3s2)c1 28.2 µM [inhibitor, single point]
CCn1c(SCC(=O)Nc2oc(-c3ccccc3)c(-c3ccccc3)c2C#N)nnc1-c1cc(OC)cc(OC)c1 28.2 µM [inhibitor, single point]
CCOC(=O)[C@]12CCC=C1N(Cc1ccc3c(c1)OCO3)C(=O)[C@H](CC(=O)NCC1CCCCC1)C2 28.2 µM [inhibitor, single point]
COc1ccc(OCCCCN(C)Cc2ccccc2)cc1 10 µM [inhibitor, single point]
COc1ccc(OC)c(S(=O)(=O)Nc2cccc3ccccc23)c1 20 µM [inhibitor, partial curve, poor fit]
O=S(=O)(c1ccccc1)c1nc(-c2ccccc2Cl)oc1N1CCCCCC1 28.2 µM [inhibitor, single point]
CCn1ncc(Br)c1C(=O)Nc1ccc(OC(F)(F)F)cc1 10 µM [inhibitor, partial curve, poor fit]

Activity change, negative = inhibition, inactive:
CSc1ccc(CN2CCN(C(=O)CC(C)C)CC2)cc1 -8.5%
CCCCN(C(=O)C1CC(=O)N(CCc2ccc(OC)c(OC)c2)C1)c1c(N)n(CCCC)c(=O)[nH]c1=O (configuration not stated) 3.71%
Cc1ccc(C(=O)NNC(=O)CSc2nnc(-c3ccncc3)n2C)cc1 -10.6%
CCn1cc(CNC(=O)c2cc(-c3ccc(C)cc3)nc3ccc(Br)cc23)c(C)n1 3.21%
Cc1ccc(S(=O)(=O)C(C#N)=C2N(C)c3ccccc3N2C)cc1 3.87%
